Results from PubChem BioAssay AID493208 (National Center for Advancing Translational Sciences (NCATS), 2011).
In all, about 44,000 compounds went through this assay and about 340 (0.77%) were called active. Another 5% or so got no clear call; they are omitted. The call rests on the fitted dose curve; in most records, active means well fitted inhibition curve with a large enough effect; inconclusive means small, poorly fitted or top-dose-only effect; inactive means flat fitted curve, though single readings scatter. Some of the results follow.

experiment: Acumen qHTS Assay for Inhibitors of the mTORC1 Signaling Pathway in MEF (Tsc2-/-, p53-/-) Cells: Sytravon; conditions: phospho-rpS6 immunofluorescence/PI, 24 h; series mostly up to 38.3 µM; activity change, negative = inhibition: at the top concentration;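 further: plate controls were DMSO for no effect and rapamycin for full effect; nearly all actives have a fitted effect of over 50% in size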
In short: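 Immunofluorescence of rpS6 phosphorylation in Tsc2-/-, p53-/- MEFs after 24 h compound exposure, normalized to propidium iodide signal. Activity is expressed as % positive cells, thresholded with 7.5 nM rapamycin.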

Activity change, negative = inhibition, inactive:
Cc1nn(-c2ccccc2)c(OC(=O)c2ccc(F)cc2)c1S(=O)(=O)c1ccccc1 -7.05%, CCN(C(=O)CCNC(=O)Cn1cnc2ccccc2c1=O)c1cccc(Cl)c1 -8.11%, COc1ccc(C2=C(C)C(N3CCC(C(=O)Nc4cc(C)ccc4C)CC3)=NS2(=O)=O)cc1 0%, CCCn1cc(S(=O)(=O)c2ccc(C)cc2)c(=O)c2cc(OC)c(OC)cc21 -0.693%, COc1cccc(NC(=O)C(=O)NCCc2csc(-c3ccc(C)cc3)n2)c1 0.618%, COC(=O)c1ccc(Cl)cc1NC(=O)NCc1c(-n2cccc2)sc2c1CCCC2 1.62%, CCOc1ccc(C(=O)Nc2ccc(C(=O)OCc3cc(=O)n4ccsc4n3)cc2)cc1 0%, CCOC(=O)c1ccc(NC(=O)c2csc3c2CCCC3)cc1 0.928%, COc1cccc(N2CCN(C(=O)c3cc4c(=O)n(Cc5cccs5)ccc4nc3C)CC2)c1 -8.21%, Cc1ccc(CNC(=O)Cn2ncc3c([nH]c4ccc(C)cc43)c2=O)cc1 4.98%, COc1ccccc1NC(=O)CN1C(=O)CC(c2ccc(C)c(C)c2)=Nc2ccccc21 0%, COc1ccc(CCNC(=O)c2ccc(-n3c(C)cc4c3CCCC4)cc2)cc1OC -6.63%, CCCc1cc(=O)[nH]c(SCc2nc(-c3ccc(C)cc3)no2)n1 2.34%, COc1ccccc1CCNC(=O)Cc1c(C)c2cc3c(C(C)(C)C)coc3c(C)c2oc1=O 2.98%, Cc1cccc(NC(=O)Cn2cnc(S(=O)(=O)N3CCCC3)c2)c1C -11.6%, CC(C)Oc1ccc(CNC(=O)Nc2ccc3c(c2)N(C)C(=O)c2ccccc2S3)cc1 -5.89%, COc1ccc(N2CCN(S(=O)(=O)CCNC(=O)COc3cccc(OC)c3)CC2)cc1 -17.9%, CCCSc1ncc(Cl)c(C(=O)Nc2c(C(=O)Nc3ccccc3)oc3ccccc23)n1 2.19%, Cc1cccc(Cn2c(SCc3ccc(C(=O)N4CCC(C)CC4)cc3)nc3ccncc32)c1 -0.301%, O=C(OCC1CCCO1)c1ccc2c(c1)N(Cc1cccc(Cl)c1)C(=O)c1ccccc1S2(=O)=O (stereo unspecified) 0.981%, Cc1ccc(NC(=O)NCCOCCn2c(=O)oc3ccccc32)cc1F 3.27%, Cc1cccc(NC(=O)c2c(NC(=O)c3ccccc3)sc3c2CCCC3)c1 8.56%, Cc1cc(C)c2c(n1)nn1c(C)c(CCC(=O)NCc3ccccc3Cl)c(C)nc21 -5.99%, CCOc1ccc(-c2cc3nc(C4CCN(C(=O)OC(C)(C)C)CC4)c(C(=O)Nc4ccc(C)cc4Cl)cn3n2)cc1 -18.6%, COC(=O)c1c(C)sc(-c2c(-c3ccc4c(c3)OCCO4)[nH]c3[nH]c(=O)[nH]c(=O)c23)c1O 0.0443%, CN1CCSc2ccc(C(=O)NCc3ccccc3F)cc21 -5.33%, CCC(Sc1nc2ccccc2c2nc(CCc3c(C)n[nH]c3C)nn12)C(=O)Nc1ccc(OC)cc1 (stereo unspecified) 2.03%, O=C(Nc1nnc(N2CCCCCC2)s1)Nc1ccccc1C(F)(F)F 0%, COc1cc(C(=O)Nc2nc3c(s2)Cc2c(Br)ccc(OC)c2-3)cc(OC)c1OC 0.278%, COc1ccc(Cl)cc1NC(=O)CSc1c2c(nc3ccccc13)CCC2 -10.5%, CCN(c1ccccc1)S(=O)(=O)c1ccc(NC(=O)c2cc(=O)c3cc(C)ccc3o2)cc1 0%, O=C(c1ccc2c(c1)N(Cc1ccc(F)cc1)C(=O)c1ccccc1S2=O)N1CCOCC1 (stereo unspecified) -3%, CCc1cccc(CC)c1NS(=O)(=O)c1ccc2c(c1)CCN2C(=O)C1CC1 -11.8%, COc1ccccc1-c1nnc(SCCOc2ccccc2C)o1 -1.48%, CCOC(=O)c1cc(-c2ccc(OC)c(S(=O)(=O)Nc3ccc(OC)cc3OC)c2)on1 -5.4%, Cc1ccc(CNC(=O)c2nnc(Cc3cccc(F)c3)o2)cc1 3.12%, COC(=O)c1sccc1S(=O)(=O)N1CCN(c2ccccc2OC)CC1 0%, O=C(Nc1ccc2nc(SCCOc3ccccc3Cl)sc2c1)c1cccs1 -13.9%, COc1ccc(N2CC(C(=O)Nc3ccc(NC(C)=O)cc3)CC2=O)cc1 (stereo unspecified) -0.0828%, COCCCNC(=O)C(=O)NCC(c1ccc2c(c1)OCO2)N1CCOCC1 (stereo unspecified) -9.17%, CCN1C(=O)c2ccccc2S(=O)c2ccc(C(=O)NCc3ccc(F)cc3)cc21 (stereo unspecified) -3.51%, Cc1ccc(C)c(S(=O)(=O)c2nnn3c2nc(N2CCOCC2)c2sccc23)c1 -7.32%, COc1ccc(NC(=O)C2=C(C)Nc3nc(CCCO)nn3C2c2ccc(O)cc2)cc1 (stereo unspecified) 1.71%, CC(C)N(Cc1ccccc1)c1ncnc2c1nnn2C 2.06%, CCOc1ccc(C(c2c(O)cc(C)n(CCOC)c2=O)N2CCN(c3ccccc3F)CC2)cc1 (stereo unspecified) 1.59%, Cc1ccc(CNC(=O)CCSCc2ccccc2F)cc1 13.7%, O=C(NCc1cccnc1)c1nn(-c2ccccc2F)nc1CO 0.445%, CCc1cccc(NC(=O)CCc2c(C)nc3c(c2C)c(=O)n(C)c(=O)n3C)c1 0.979%, Cc1cc(C)c2oc(C(=O)Nc3sc4c(c3C(=O)NCc3ccco3)CCCC4)cc(=O)c2c1 2.15%, Cc1ccc(N(C(=O)COc2ccccc2C)S(=O)(=O)c2ccc(Cl)cc2)cc1 6.2%, Cc1ccc(NC(=O)c2cccc(N3CCCS3(=O)=O)c2)cc1 0%, COc1ccccc1NC(=O)Cn1c(=O)n(-c2ccc(C)cc2)c(=O)c2ccc(C(=O)NCc3ccco3)cc21 2.65%, COc1ccccc1N1CCN(c2ccc(=O)n(CC(=O)Nc3ccc(F)c(F)c3)n2)CC1 -0.208%, Cc1c(NC(=O)c2ccc(Cl)cc2)cc(C(C)C)c(O)c1S(=O)(=O)c1ccc(Cl)cc1 -2.37%, CCOCCCNC(=O)c1ccc(NC(=O)N2CCCCc3ccccc32)cc1 1.87%, O=C(NCc1ccc(Cl)cc1)C1CCCN(C(=O)c2cnn(-c3ccc(F)cc3)c2-n2cccc2)C1 (stereo unspecified) -5.88%, O=C(CCn1c(=O)c2cccn2c2ccc(F)cc21)NCCc1ccccc1 -2.63%, CCCc1cc(C(=O)Nc2c(C)nn(Cc3ccc(C)cc3)c2C)no1 -27.3%, Cc1ccc(C)c(Nc2cc(C(=O)NC3CCCCC3)c3ccccc3n2)c1 -8.23%, CCC(=O)N1CCc2cc(CNC(=O)C(CC)c3ccccc3)ccc21 (stereo unspecified) -2.66%, COc1ccc(-c2nc(CN3CCC(C(=O)NCCCOC(C)C)CC3)c(C)o2)cc1OC -7.63%
